This is one part of the list. At the low end of the ranking the order means little. Measured with an extract: partners may take part in the binding.

For this test, the target named is T1, HNF4alpha2 (COS-7 nuclear extract) (UniProt P41235).
T1 sequence: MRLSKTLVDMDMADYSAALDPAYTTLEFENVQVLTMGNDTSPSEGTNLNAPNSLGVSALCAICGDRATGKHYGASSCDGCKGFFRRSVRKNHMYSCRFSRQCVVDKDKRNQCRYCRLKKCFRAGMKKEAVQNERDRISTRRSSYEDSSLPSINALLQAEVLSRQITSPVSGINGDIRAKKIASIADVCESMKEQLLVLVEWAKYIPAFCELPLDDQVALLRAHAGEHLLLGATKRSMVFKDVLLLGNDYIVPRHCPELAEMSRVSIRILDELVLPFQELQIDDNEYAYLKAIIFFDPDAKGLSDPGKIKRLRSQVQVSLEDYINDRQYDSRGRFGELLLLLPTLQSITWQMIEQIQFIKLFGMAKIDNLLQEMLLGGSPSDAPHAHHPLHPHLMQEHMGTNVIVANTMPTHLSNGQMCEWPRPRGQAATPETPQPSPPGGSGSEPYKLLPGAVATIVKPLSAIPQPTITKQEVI
The experiment in a line: protein-binding microarray. The conditions noted are these: COS-7 nuclear extract on double-stranded Agilent 4x180k PBM; binding buffer, salt, pH and temperature not given; high values mean tight binding; double strand, one strand shown; sequences stand for … in …GCCTAGGGAGATTAGAGTATCGGTCGA
In the case of GTACTTTGGAACCTGAAAGAGCAACTACTC, the binding signal (log2 normalized intensity) turned out to be 2.5.

With CAAATATTTACTGAATGAATGTCCAACTTG, the binding signal (log2 normalized intensity) is -0.173.

Turning to TGAGGGTAAAGATCTTGAGGCCCACAAGGA, the binding signal (log2 normalized intensity) was -1.19.

For the sequence TAACAGACTGTAGGCTTGGAGCCTTGTAAA, the binding signal (log2 normalized intensity) is -0.934.

CCATGGACCTGACACCCGCTGGCGCCATCC: the binding signal (log2 normalized intensity) is -1.25.

For the sequence AGGTTACAATTGTCCCCAAGATTGAGGCCA, the binding signal (log2 normalized intensity) stood at 1.21.

Take CCTCCTGTGGTAATAAGTTGGTGGACGCTG: the binding signal (log2 normalized intensity) was 1.02.

For the sequence GGAATGTCCTGGCAGGCTTCGAAAAATGGG, the binding signal (log2 normalized intensity) was -0.695.

Consider GCACATGGCATGATCCCTGACTCATAGCTC, for which the binding signal (log2 normalized intensity) is -1.18.

For TGTTAGCACTCAGTCATTGCCATCTGCAAG, the binding signal (log2 normalized intensity) was -1.09.

As to GCTGTATGTTCTAACCATAGGAGGCTGGTC, the binding signal (log2 normalized intensity) stood at 0.647.

Turning to TGCCTAGAGGCCTGGGAATGCCTAGGGGGA, the binding signal (log2 normalized intensity) is -1.11.

Regarding CACTCAGCTGTGTCTACCCTTTTGCCCTTT, the binding signal (log2 normalized intensity) amounted to 5.62.

For the sequence CTGGGCGCTGGGAAGACAGTCTTGGGCACA, the binding signal (log2 normalized intensity) was -1.27.

As for TTCTAGACACCAAACACAGTTGCTGTCTAG, the binding signal (log2 normalized intensity) amounted to 0.594.

Take GGAGCGGCCTGCACCTGTTTCTGGAGAATG: the binding signal (log2 normalized intensity) is -1.19.

Turning to GAGTGTCAGAGGCTAAACCTAGCCCCCTTT, the binding signal (log2 normalized intensity) is 3.05.

For the sequence GCTCAAAGGCGGCCCGGGTGGGGGTGGGGC, the binding signal (log2 normalized intensity) is -1.14.

As to CTTCATTCTCATCTTCTATGATAAGATCTT, the binding signal (log2 normalized intensity) was 1.47.

For the sequence TCCGCGAGGGTCCCCACCTTCCATTACCAC, the binding signal (log2 normalized intensity) is 1.47.

Take CCGGGGCAAACAAGGGCAACTCTAATAGCA: the binding signal (log2 normalized intensity) is -1.15.

With TGACCTTTGTTTGGTCAAATACCTAATTGT, the binding signal (log2 normalized intensity) was determined as 2.63.

As to GTCTTTCAGGAAGGAATAAAAGGCTGTTCT, the binding signal (log2 normalized intensity) is 0.708.

For the sequence TCTTTGAGAAAACTCCAAAGACATTATCAC, the binding signal (log2 normalized intensity) was -1.1.

With CACAGACAAATATTTGCTGTTACTCTAGTA, the binding signal (log2 normalized intensity) is 0.789.

On to AAAATACCTGGAAGTATTTATTGAGCACAC, for which the binding signal (log2 normalized intensity) was -0.723.

As for CAACCAGGAGAATTTCAGTATTAATGTCAA, the binding signal (log2 normalized intensity) worked out at 0.794.

With CCCACTCCCCCTGCTGGACACCGAGGTCCT, the binding signal (log2 normalized intensity) worked out at 2.1.

For the sequence TTGCCCTTTGCCCAACCCTCTCCCACTCCC, the binding signal (log2 normalized intensity) came to 4.91.

In the case of TTCCAAAGGTCACCCGTATTCCTTAGCTTA, the binding signal (log2 normalized intensity) was determined as 1.6.

As to TTTTCGGAAGAACTGGTTCTGTGGAATTTG, the binding signal (log2 normalized intensity) came out at 1.83.

Take TTCCACGACTCCCCCGCTCACCCCTCCCCA: the binding signal (log2 normalized intensity) worked out at 6.39.

AGTTGGAAAATATTTCTCTGAACTTTGACC: the binding signal (log2 normalized intensity) came out at 8.41.

As for CCCAAAAGGTCAATCTGGATTGTACTGTGT, the binding signal (log2 normalized intensity) stood at 3.1.

With ATTCATAAAGTTCTCTGGCAAATATCAGCA, the binding signal (log2 normalized intensity) is 0.257.

With AGAGGTCACTCAGCAATAAATACCAAAGCC, the binding signal (log2 normalized intensity) is -1.03.

Turning to CAGAAGTCATGTCTCATTGCCCCTTGAGCT, the binding signal (log2 normalized intensity) was 3.52.

As for TTCCAGGGATGTTTGGCAGCTGAGGATTGT, the binding signal (log2 normalized intensity) was 1.61.

Consider GCGTATGAAGCTTTGACCCTGTTTTGTAAA, for which the binding signal (log2 normalized intensity) was 2.4.

Consider AGAGCAGACTATTATCAGCCAAAGTTCAGT, for which the binding signal (log2 normalized intensity) stood at 1.87.

Turning to TGAGGTCAAGGCTTCTGCCCCAGACACGCT, the binding signal (log2 normalized intensity) worked out at 1.56.

For CCCATTTTGTCCCTCCCTGCAGCTGAAGCA, the binding signal (log2 normalized intensity) is 1.49.

Consider CTTTGGACTTTTGAACTAAGGCTGGAATGA, for which the binding signal (log2 normalized intensity) came out at 2.92.

For CCACTGCGACCTTTGCCCTCCCTAAATCCA, the binding signal (log2 normalized intensity) is 6.95.

Consider AGGCAATGACTCCAAAGTTCAAACTCTGAA, for which the binding signal (log2 normalized intensity) turned out to be 2.2.

Consider GAGGCCAGTTTGACCTTTGCATTCTTACCC, for which the binding signal (log2 normalized intensity) was determined as 5.97.

As for GTTAAGACCTACATTAAGACCACCTCTATG, the binding signal (log2 normalized intensity) was -1.12.

With TACCCCTGTGGTTGACCTTTAGTCTCTAGC, the binding signal (log2 normalized intensity) turned out to be 6.48.

As for CCCTCAGGGAATCCTGCATTATCAGGCAAG, the binding signal (log2 normalized intensity) was -0.878.

With CCAGACAGGGGGGCGCCTACGGACGGGTAA, the binding signal (log2 normalized intensity) was -1.14.

Turning to GCAGGGAGGAGCGCATCGGGCGCCAGCGCC, the binding signal (log2 normalized intensity) is -1.05.

For ATTTCACCCAGGTATGACAAGCATGCACTG, the binding signal (log2 normalized intensity) was -1.07.

In the case of GCCTTTTACCTTGGCAGCCACTGAGGCTCT, the binding signal (log2 normalized intensity) is -1.21.

Turning to CTGACTGGAAGAGCCTGCAAGGGAGACCAG, the binding signal (log2 normalized intensity) is -1.07.

As to GAAAGTAGTTGGGGATTGTGTAACATCTAA, the binding signal (log2 normalized intensity) is -1.11.

Turning to AGGTAGGGCCTACCTGCCTGAGCTATCTGT, the binding signal (log2 normalized intensity) was -1.08.

Take CACTCCCACACTGGTAACCTTTAGTCTCCA: the binding signal (log2 normalized intensity) is 3.28.

Turning to TATTCCATATCAGCTTTCTTTTCCAACCAT, the binding signal (log2 normalized intensity) is 1.48.

For the sequence AACAAAAAGGGCAAAGGTCAGCTCATTCCC, the binding signal (log2 normalized intensity) stood at 6.63.

On to TTGGACTTTGGTCATCCTTTACTTTCCCAA, for which the binding signal (log2 normalized intensity) turned out to be 5.18.

For GCAAATAGGATTAGGAAACCTGGTAGCGTG, the binding signal (log2 normalized intensity) is -1.02.

With AACTTGTTTTTGATTTTGCAGGCTGATAGG, the binding signal (log2 normalized intensity) amounted to 1.59.

On to AGATAAATAAATCAAGATCACTGCCTTGGA, for which the binding signal (log2 normalized intensity) was -1.2.

As to ATCAGAGTCCAGCTGTGCCCCAGTCCTTCA, the binding signal (log2 normalized intensity) is 1.13.

As for GGACTGGGCTGGAACACAAAGAAAGCCAAA, the binding signal (log2 normalized intensity) is -1.04.

For the sequence TTCCCTGTCGCTATCTTATCTGGGCCAGGT, the binding signal (log2 normalized intensity) turned out to be 1.44.

Turning to GGGCTAGAGCTTAAAAGCCCAACACGGGCG, the binding signal (log2 normalized intensity) is -0.994.

Consider GCCAGCACAGGAGGCCTCTCAAAGCAGGAT, for which the binding signal (log2 normalized intensity) was -1.14.

For TGGGCTGGGAGCTAATGAGCACATTCTTCA, the binding signal (log2 normalized intensity) was -1.2.

On to GACAGAAACCAAGCTGTCCGACTGCACACC, for which the binding signal (log2 normalized intensity) is -1.17.

On to CTGTCGGAATTTGCCCTGTGGTCTAGCTTG, for which the binding signal (log2 normalized intensity) was determined as 1.78.

For GAATGTATTGAGAAGAAACCTTTGCCCAAC, the binding signal (log2 normalized intensity) is 2.79.

As to ACCTTTGATCATTTGAGGGTGACACTGCTC, the binding signal (log2 normalized intensity) was determined as 1.55.
